{"source": "paper PMC8454987", "about": "(PLoS Biology, 2021)", "biological_target": "the molecule itself", "experiment": "fluorescence intensity fluctuatio", "data": [{"protein": "Full-length EphA2 wild type tagged with mTurquoise or eYFP, on HEK293T cells (receptor, human, also called EphA2 WT; EphA2-mTurquoise) [… about 500 residues …]IGGVAVGVVLLLVLAGVGFFIHRRRKNQRARQSPEDVYFSKSEQLKPLKTYVDPHTYEDPNQAVLKFTTEIHPSCVTRQKVIGAGEFGEVYKGMLKTSSGKKEVPVAIKTLKAGYTEKQRVDFLGEAGIMGQFSHHNIIRLEGVISKYKPMMIITEYMENGALDKFLREKDGEFSVLQLVGMLRGIAAGMKYLANMNYVHRDLAARNILVNSNLVCKVSDFGLSRVLEDDPEATYTTSGGKIPIRWTAPEAISYRKFTSASDVWSFGIVMWEVMTYGERPYWELSNHEVMKAINDGFRLPTPMDCPSAIYQLMMQCWQQERARRPKFADIVSILDKLIRAPDSLKTLADFDPRVSIRLPSTSGSEGVPFRTVSEWLESIKMQQYTEHFMAAGYTAIEKVVQMTNDDIKRIGVRLPGHQKRIAYSLLGLKDQVNTVGIPI", "values": [{"measurement": "stoichiometry N", "result": 2}]}]}
